# Test results as given in PMC10254187.
# Protein sequences, listed by entry. Tags and fused reporters are not part of them. Lines headed by an entry give the natural chain unless they say otherwise; changes in a name come on top. Chains listed by the source or under a name are the forms on record and can include a tag or linker. Residues count along the entry.
# UniProt Q15717: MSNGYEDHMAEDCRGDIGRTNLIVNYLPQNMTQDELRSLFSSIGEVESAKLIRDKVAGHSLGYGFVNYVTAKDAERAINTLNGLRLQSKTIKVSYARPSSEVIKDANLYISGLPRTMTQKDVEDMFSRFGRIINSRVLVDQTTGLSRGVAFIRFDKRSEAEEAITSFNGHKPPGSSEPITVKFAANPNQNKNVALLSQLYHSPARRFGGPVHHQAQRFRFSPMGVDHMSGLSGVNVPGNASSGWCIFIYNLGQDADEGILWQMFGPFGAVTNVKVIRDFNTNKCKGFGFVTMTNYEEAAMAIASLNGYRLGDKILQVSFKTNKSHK
# HA-tagged LOXL2 wild type (Q9Y4K0, residues 26-774): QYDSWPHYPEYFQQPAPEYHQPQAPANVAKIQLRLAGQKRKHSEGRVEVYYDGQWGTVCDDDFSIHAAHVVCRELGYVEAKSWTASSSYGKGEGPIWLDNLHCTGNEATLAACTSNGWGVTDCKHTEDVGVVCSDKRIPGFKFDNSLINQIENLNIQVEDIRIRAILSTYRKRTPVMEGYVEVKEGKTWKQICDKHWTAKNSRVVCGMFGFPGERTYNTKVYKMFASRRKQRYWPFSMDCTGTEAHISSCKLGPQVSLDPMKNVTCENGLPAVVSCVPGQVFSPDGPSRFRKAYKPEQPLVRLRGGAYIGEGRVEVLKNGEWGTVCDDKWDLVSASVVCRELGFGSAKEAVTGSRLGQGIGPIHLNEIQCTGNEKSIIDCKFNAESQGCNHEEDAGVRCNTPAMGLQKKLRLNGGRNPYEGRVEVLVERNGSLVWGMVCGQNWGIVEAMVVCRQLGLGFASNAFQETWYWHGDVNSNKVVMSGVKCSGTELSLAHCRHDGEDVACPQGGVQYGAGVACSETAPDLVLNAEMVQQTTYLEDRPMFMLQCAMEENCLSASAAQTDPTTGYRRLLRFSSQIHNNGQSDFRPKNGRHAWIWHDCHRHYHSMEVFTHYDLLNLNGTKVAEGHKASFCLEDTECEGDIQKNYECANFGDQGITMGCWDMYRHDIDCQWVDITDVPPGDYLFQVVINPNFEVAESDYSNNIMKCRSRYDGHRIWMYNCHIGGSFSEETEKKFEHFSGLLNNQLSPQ
# HA-tagged LOXL2 mutant carrying a deletion of the SRCR-1 domain (Q9Y4K0, form named): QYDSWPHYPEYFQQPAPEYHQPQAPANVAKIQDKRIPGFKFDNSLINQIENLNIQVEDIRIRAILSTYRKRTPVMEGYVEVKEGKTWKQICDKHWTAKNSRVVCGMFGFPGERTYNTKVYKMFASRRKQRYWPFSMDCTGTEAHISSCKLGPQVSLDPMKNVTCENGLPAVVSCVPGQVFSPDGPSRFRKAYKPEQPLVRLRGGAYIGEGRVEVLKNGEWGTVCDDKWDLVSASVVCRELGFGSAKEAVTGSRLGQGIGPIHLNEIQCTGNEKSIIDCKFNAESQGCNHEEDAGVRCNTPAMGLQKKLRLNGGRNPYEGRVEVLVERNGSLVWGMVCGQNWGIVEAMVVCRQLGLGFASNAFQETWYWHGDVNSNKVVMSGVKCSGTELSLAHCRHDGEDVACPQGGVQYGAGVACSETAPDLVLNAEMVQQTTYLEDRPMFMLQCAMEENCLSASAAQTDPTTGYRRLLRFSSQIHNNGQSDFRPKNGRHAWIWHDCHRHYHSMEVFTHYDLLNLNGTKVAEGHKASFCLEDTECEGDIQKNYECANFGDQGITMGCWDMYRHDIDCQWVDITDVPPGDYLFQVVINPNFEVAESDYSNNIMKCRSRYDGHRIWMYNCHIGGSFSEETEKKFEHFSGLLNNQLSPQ
# UniProt P11021, residues 19-654: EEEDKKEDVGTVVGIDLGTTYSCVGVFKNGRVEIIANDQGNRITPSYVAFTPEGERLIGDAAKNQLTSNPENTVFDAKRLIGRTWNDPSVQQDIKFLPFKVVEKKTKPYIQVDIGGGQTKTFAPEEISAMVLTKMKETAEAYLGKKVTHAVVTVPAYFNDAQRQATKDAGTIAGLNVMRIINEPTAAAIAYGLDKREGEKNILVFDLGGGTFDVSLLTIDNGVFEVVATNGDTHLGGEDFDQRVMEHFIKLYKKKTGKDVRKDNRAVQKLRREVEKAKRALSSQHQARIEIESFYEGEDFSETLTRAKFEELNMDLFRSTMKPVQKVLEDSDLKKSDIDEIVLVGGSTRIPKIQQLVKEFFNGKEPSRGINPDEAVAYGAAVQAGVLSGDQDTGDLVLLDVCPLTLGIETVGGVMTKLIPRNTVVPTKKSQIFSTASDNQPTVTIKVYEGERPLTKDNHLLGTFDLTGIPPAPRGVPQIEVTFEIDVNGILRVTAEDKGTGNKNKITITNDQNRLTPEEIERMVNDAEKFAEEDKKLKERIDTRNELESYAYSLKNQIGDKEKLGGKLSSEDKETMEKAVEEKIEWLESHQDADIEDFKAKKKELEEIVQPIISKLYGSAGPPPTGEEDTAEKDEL
# These are yes or no findings as the source states them, for the method shown. In cells and extracts the contact can be indirect. Some entries that bind do so weakly or less than the wild type.
# B1: MATRIN3 (protein, UniProt P43243 1-847)
# chain: MSKSFQQSSLSRDSQGHGRDLSAAGIGLLAAATQSLSMPASLGRMNQGTARLASLMNLGMSSSLNQQGAHSALSSASTSSHNLQSIFNIGSRGPLPLSSQHRGDADQASNILASFGLSARDLDELSRYPEDKITPENLPQILLQLKRRRTEEGPTLSYGRDGRSATREPPYRVPRDDWEEKRHFRRDSFDDRGPSLNPVLDYDHGSRSQESGYYDRMDYEDDRLRDGERCRDDSFFGETSHNYHKFDSEYERMGRGPGPLQERSLFEKKRGAPPSSNIEDFHGLLPKGYPHLCSICDLPVHSNKEWSQHINGASHSRRCQLLLEIYPEWNPDNDTGHTMGDPFMLQQSTNPAPGILGPPPPSFHLGGPAVGPRGNLGAGNGNLQGPRHMQKGRVETSRVVHIMDFQRGKNLRYQLLQLVEPFGVISNHLILNKINEAFIEMATTEDAQAAVDYYTTTPALVFGKPVRVHLSQKYKRIKKPEGKPDQKFDQKQELGRVIHLSNLPHSGYSDSAVLKLAEPYGKIKNYILMRMKSQAFIEMETREDAMAMVDHCLKKALWFQGRCVKVDLSEKYKKLVLRIPNRGIDLLKKDKSRKRSYSPDGKESPSDKKSKTDGSQKTESSTEGKEQEEKSGEDGEKDTKDDQTEQEPNMLLESEDELLVDEEEAAALLESGSSVGDETDLANLGDVASDGKKEPSDKAVKKDGSASAAAKKKLKKVDKIEELDQENEAALENGIKNEENTEPGAESSENADDPNKDTSENADGQSDENKDDYTIPDEYRIGPYQPNVPVGIDYVIPKTGFYCKLCSLFYTNEEVAKNTHCSSLPHYQKLKKFLNKLAEERRQKKET
# B2: HNRNPM (protein, UniProt P52272 1-730)
# chain: MAAGVEAAAEVAATEIKMEEESGAPGVPSGNGAPGPKGEGERPAQNEKRKEKNIKRGGNRFEPYANPTKRYRAFITNIPFDVKWQSLKDLVKEKVGEVTYVELLMDAEGKSRGCAVVEFKMEESMKKAAEVLNKHSLSGRPLKVKEDPDGEHARRAMQKVMATTGGMGMGPGGPGMITIPPSILNNPNIPNEIIHALQAGRLGSTVFVANLDYKVGWKKLKEVFSMAGVVVRADILEDKDGKSRGIGTVTFEQSIEAVQAISMFNGQLLFDRPMHVKMDERALPKGDFFPPERPQQLPHGLGGIGMGLGPGGQPIDANHLNKGIGMGNIGPAGMGMEGIGFGINKMGGMEGPFGGGMENMGRFGSGMNMGRINEILSNALKRGEIIAKQGGGGGGGSVPGIERMGPGIDRLGGAGMERMGAGLGHGMDRVGSEIERMGLVMDRMGSVERMGSGIERMGPLGLDHMASSIERMGQTMERIGSGVERMGAGMGFGLERMAAPIDRVGQTIERMGSGVERMGPAIERMGLSMERMVPAGMGAGLERMGPVMDRMATGLERMGANNLERMGLERMGANSLERMGLERMGANSLERMGPAMGPALGAGIERMGLAMGGGGGASFDRAIEMERGNFGGSFAGSFGGAGGHAPGVARKACQIFVRNLPFDFTWKMLKDKFNECGHVLYADIKMENGKSKGCGVVKFESPEVAERACRMMNGMKLSGREIDVRIDRNA
# Experiments:
# [1] = biological target: ELAVL1 (ELAV-like RNA-binding protein 1) (human (endogenous in HEK293T)) (UniProt Q15717); assay: co-IP; whole-cell lysates of HEK293T cells transfected with HA-LOXL2 WT or SRCR-deletion mutants, precipitated with anti-ELAVL1/HuR antibody in IP buffer (50 mM Tris-HCl pH 7.4, 150 mM NaCl, 5 mM EDTA, 1% Triton X-100), overnight at 4 °C; blot with anti-LOXL2
# [2] = biological target: HA-tagged LOXL2 wild type (human) (UniProt Q9Y4K0); assay: co-IP; lysates of HEK293T cells transfected with HA-LOXL2 WT or Δ-1, precipitated with anti-HA antibody in IP buffer (50 mM Tris-HCl pH 7.4, 150 mM NaCl, 5 mM EDTA, 1% Triton X-100), overnight at 4 °C; blots for HSPA5, HNRNPC, MATRIN3 and HNRNPM
# [3] = biological target: HA-tagged LOXL2 mutant carrying a deletion of the SRCR-1 domain (human) (UniProt Q9Y4K0); assay: as above
Molecule,binding [1],binding [2],binding [3]
HA-tagged LOXL2 mutant carrying a deletion of the SRCR-1 domain (from UniProt Q9Y4K0 26-774) (enzyme),no binding,–,–
HSPA5 (from UniProt P11021 19-654),–,binds,no binding
HA-tagged LOXL2 wild type (from UniProt Q9Y4K0 26-774) (enzyme),binds,–,–
B1,–,binds,no binding
B2,–,binds,no binding
